Data from PubChem BioAssay AID1460 (National Center for Advancing Translational Sciences (NCATS), 2008).
“And” between values parts separate entries of the source, which are not always exact repeats. Equal entries are not always repeated. In all, about 270,000 compounds went through this assay and about 5,800 (2.1%) were called active. Inconclusive results, whose numbers are uncertain, are shown with a selection of clear calls. The call rests on the fitted dose curve; in most records, active means well fitted inhibition curve with a large enough effect; inconclusive means small, poorly fitted or top-dose-only effect; inactive means flat fitted curve, though single readings scatter. Potencies beside an inconclusive call are fits to weak or partial responses and may not hold up.
Further: nearly all actives have a fitted effect of over 55% in size.
On the % scale 0 is the no-effect control and ±100 the full control effect; potency means the concentration at half of the fitted maximal effect; tags describe the fitted curve by direction and shape.

Each compound was assayed against Microtubule-associated protein tau (Homo sapiens) (UniProt P10636) (assay: qHTS for Inhibitors of Tau Fibril Formation, Thioflavin T Binding). Conditions: recombinant tau K18 P301L (four-repeat tau fragment), heparin-induced fibrillization, ThT fluorescence; series mostly up to 57.4 µM; activity, negative = inhibition: at the top concentration.
Sequence of UniProt P10636 (P10636 whole entry, looked up, the tested form may be a part): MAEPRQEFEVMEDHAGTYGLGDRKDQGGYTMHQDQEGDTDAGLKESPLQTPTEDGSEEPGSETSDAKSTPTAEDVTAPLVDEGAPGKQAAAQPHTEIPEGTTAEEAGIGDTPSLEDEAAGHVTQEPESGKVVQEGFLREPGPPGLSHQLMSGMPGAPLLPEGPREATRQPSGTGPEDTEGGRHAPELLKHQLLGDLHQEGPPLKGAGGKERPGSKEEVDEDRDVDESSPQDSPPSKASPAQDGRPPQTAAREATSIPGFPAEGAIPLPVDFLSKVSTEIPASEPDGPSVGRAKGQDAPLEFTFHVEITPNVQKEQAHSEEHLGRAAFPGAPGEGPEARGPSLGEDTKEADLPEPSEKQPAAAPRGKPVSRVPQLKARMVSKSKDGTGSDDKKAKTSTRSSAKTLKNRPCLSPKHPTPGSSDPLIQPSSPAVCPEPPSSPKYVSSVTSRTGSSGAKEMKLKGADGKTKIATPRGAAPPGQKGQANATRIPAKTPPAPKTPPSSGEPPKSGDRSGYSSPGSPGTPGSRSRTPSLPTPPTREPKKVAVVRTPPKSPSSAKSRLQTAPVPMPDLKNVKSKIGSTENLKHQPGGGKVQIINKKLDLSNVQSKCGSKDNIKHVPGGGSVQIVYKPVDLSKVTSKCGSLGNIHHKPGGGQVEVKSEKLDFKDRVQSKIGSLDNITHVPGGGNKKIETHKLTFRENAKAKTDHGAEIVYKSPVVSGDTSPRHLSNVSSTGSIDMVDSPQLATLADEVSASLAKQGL
Method in brief: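 Aggregation was driven by heparin (20 uM final) acting on recombinant tau […] bearing P301L in 100 mM sodium acetate pH 7; fibrils were detected with Thioflavin T.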
In the case of `CC1=CC(C)(C)Nc2ccc(C)cc21`, the Potency is reported as inconclusive: 14.1 µM [inhibitor, partial curve, poor fit].
In the case of `Cc1cc(N/N=C/c2ccco2)c2ccccc2n1`, the “activity, negative = inhibition” value is reported as inactive: -1.6%.
`COc1ccc(C(=O)N/N=C/c2ccc3cccc(OCc4ccccc4)c3n2)cc1` was tested, and the Potency was inconclusive: 14.1 µM [inhibitor, partial curve].
For `COc1ccc(-c2ccc(C#N)c(SCC(=O)Nc3sc4c(c3C#N)CCC4)n2)cc1OC`, the Potency was inconclusive: 5.62 µM [inhibitor, partial curve].
For `S=C(c1ccc(N2CCCC2)cc1)N1CCCCC1`, the Potency was inconclusive: 22.4 µM [inhibitor, partial curve].
In the case of `CCCC(=O)OCc1cnc(C)c2oc(=O)c(C(=O)Nc3ccccc3)cc12`, the “activity, negative = inhibition” value is reported as inactive: -7.43%.
For `COc1ccccc1CN1CCCC(C(=O)N2CCCCC2)C1` (stereo not drawn), the “activity, negative = inhibition” value was inactive: 2.29%.
In the case of `COc1ccc(OC)c(NC(=O)CSc2nc3ccccc3nc2N2CCCCC2)c1`, the Potency is reported as inconclusive: 15.8 µM [inhibitor, single point].
In the case of `Cc1cc(/C=C2\SC(=S)NC2=O)c(C)[nH]1`, the Potency is reported as active: 15.8 µM.
For `Cc1ccc(-c2ccc(CCC(=O)O)o2)cc1`, the “activity, negative = inhibition” value was inactive: -13.2%.
For `O=C(CSc1nnc(-c2ccc(F)cc2)o1)Nc1ccc(S(=O)(=O)N2CCCCCC2)cc1`, the “activity, negative = inhibition” value was inactive: 8.08%.
For `Cc1cc(Nc2cccc(C(F)(F)F)c2)nc2ccc(NC(=O)c3ccc(=O)[nH]c3)cc12`, the Potency was inconclusive: 2.82 µM [inhibitor, full curve].
For `N#C/C(=C/c1ccc([N+](=O)[O-])cc1)C(=O)Nc1ccccc1O`, the Potency was inconclusive: 15.8 µM [inhibitor, partial curve].
`Nc1nc2ccccc2n1/N=C/c1ccc2c(c1)OCO2` was tested, and the Potency was inconclusive: 1.12 µM [inhibitor, full curve].
In the case of `Cc1cc(C)c(NC(=S)NCC2CCN(C(C)c3ccccc3)C2)c(C)c1` (stereo not drawn), the Potency is reported as inconclusive: 35.5 µM [inhibitor, single point].
In the case of `COc1ccc(C2CC(c3cccs3)n3nc(N)nc3N2)cc1` (stereo not drawn), the Potency is reported as inconclusive: 39.8 µM [inhibitor, single point].
For `Cc1c(N=C2N=C(NC(=O)c3ccc(F)cc3)c3ccccc32)c(=O)n(-c2ccccc2)n1C`, the Potency was inconclusive: 12.6 µM [inhibitor, partial curve].
With `COc1cc(OC)cc(N(C(=O)c2ccco2)C(C(=O)NC2CCCC2)c2ccc(N(C)C)cc2)c1` (stereo not drawn) the “activity, negative = inhibition” value was inactive: -17.1%.
`O=C(Nc1ccc2oc(-c3ccc4ccccc4c3)nc2c1)c1ccccc1F` was tested, and the Potency was inconclusive: 0.501 µM [inhibitor, full curve, poor fit].
With `CC(=O)Nc1cccc(OC(=O)COc2ccc(Br)cc2)c1` the Potency was inconclusive: 15.8 µM [inhibitor, single point].
In the case of `O=C(COc1ccccc1)Nc1nnc(S(=O)(=O)N2CCCC2)s1`, the Potency is reported as inconclusive: 2.24 µM [inhibitor, full curve, poor fit].
In the case of `COc1ccc(C(=O)c2oc3ccc(OC)cc3c2N)cc1`, the Potency is reported as active: 11.2 µM.
With `CN(C)c1ccc(N2C(=O)CSC2=S)cc1` the Potency was active: 4.47 µM.
For `O=C(c1ccccc1Br)N1CCN(c2ccc([N+](=O)[O-])c(N3CCOCC3)c2)CC1`, the Potency was inconclusive: 28.2 µM [inhibitor, partial curve].
`O=C(CSc1nc2cc(Cl)ccc2s1)Nc1cccc(S(=O)(=O)N2CCOCC2)c1` was tested, and the “activity, negative = inhibition” value was inactive: 7.68%.
`CCc1ccccc1S(=O)(=O)Cc1ccc(C(=O)N2CCN(c3ccccn3)CC2)o1` was tested, and the “activity, negative = inhibition” value was inactive: -7.91%.
With `CCN(CC#CCC(O)(c1ccccc1)C1CCCC1)C(C)C` (stereo not drawn) the “activity, negative = inhibition” value was inactive: 5.9%.
`CCC(=O)N/N=C/c1ccc(-c2ccc(Cl)cc2)o1` was tested, and the Potency was inconclusive: 5.01 µM [inhibitor, partial curve].
`CCc1ccccc1NC(=O)c1ccc2c(c1)N(Cc1cc(C)ccc1C)C(=O)c1ccccc1S2(=O)=O` was tested, and the “activity, negative = inhibition” value was inactive: 10.4%.
For `Cc1ccc(SC/C(O)=C(\C#N)c2nc3ccccc3s2)cc1`, the Potency was inconclusive: 14.1 µM [inhibitor, partial curve].
For `CCC(O)CC(C(=O)NNc1ccccc1)C(=O)NNc1ccccc1` (stereo not drawn), the “activity, negative = inhibition” value was inactive: 0.39%.
`COc1cccc(C(c2c(O)cc(C)n(Cc3ccco3)c2=O)N2CCN(c3ccccc3)CC2)c1` (stereo not drawn) was tested, and the Potency was inconclusive: 11.2 µM [inhibitor, partial curve, poor fit].
`Cc1c(C(=S)Nc2ccccc2)cnn1-c1ccc([N+](=O)[O-])cc1` was tested, and the Potency was inconclusive: 15.8 µM [inhibitor, partial curve].
With `O=C(Nc1ccc(-c2nc3cc(Cl)ccc3o2)cc1)C1CCCO1` (stereo not drawn) the Potency was inconclusive: 8.91 µM [inhibitor, partial curve].
For `Cc1cc(C)nc(N/N=C/C(Cl)=C/c2ccccc2)n1`, the Potency was inconclusive: 4.47 µM [inhibitor, partial curve].
With `COc1cccc(C(=O)/C=C2\Sc3ccccc3N2C)c1` the Potency was inconclusive: 2.82 µM [inhibitor, full curve].
With `COc1ccccc1N1CCN(c2ccc(N3C(=O)CCC3=O)cc2[N+](=O)[O-])CC1` the Potency was inconclusive: 14.1 µM [inhibitor, partial curve, poor fit].
In the case of `O=C(Nc1ccc(F)cc1)C(=O)c1c(O)[nH]c2ccc([N+](=O)[O-])cc12`, the Potency is reported as active: 15.8 µM.
`Cn1cnnc1SCC(=O)NC1CCCCC1` was tested, and the “activity, negative = inhibition” value was inactive: -1.96%.
With `Cn1c(=O)c2c(nc(NCc3ccc4c(c3)OCO4)n2Cc2ccccc2)n(C)c1=O` the “activity, negative = inhibition” value was inactive: -7.44%.
With `COc1cc(/C=N/NC(=O)CN(Cc2ccccc2)S(=O)(=O)c2ccc3c(c2)OCCO3)ccc1O` the Potency was inconclusive: 39.8 µM [inhibitor, single point].
`CC(=O)N1CCCN(Cc2cn(-c3cccc(C)c3)nc2-c2cccc(F)c2)CC1` was tested, and the “activity, negative = inhibition” value was inactive: -12%.
In the case of `C/C(=N/NC(=O)CSc1nc2ccccc2n1C)c1ccc(O)cc1`, the Potency is reported as inconclusive: 31.6 µM [inhibitor, partial curve, poor fit].
In the case of `Cc1sc(NC(=O)c2ccco2)c(C(c2cccnc2)N2CCCC2)c1C` (stereo not drawn), the Potency is reported as inconclusive: 20 µM [inhibitor, single point].
For `CCCCC1CN2C(CCC(C)C2c2ccc(Br)cc2)C(=O)O1` (stereo not drawn), the activity, negative = inhibition was inactive: -7.15% [at 11.5 µM] and inactive: -3.33% [at 11.5 µM] and inactive: -2.38% [at 11.5 µM].
With `Cn1cnc([N+](=O)[O-])c1Oc1ccccc1` the Potency was inconclusive: 22.4 µM [inhibitor, single point].
In the case of `COc1ccc(OC)c(C2CC(=O)N3CN(c4ccc(C)c(Cl)c4)CSC3=C2C#N)c1` (stereo not drawn), the Potency is reported as active: 28.2 µM.
With `COc1ccc2[nH]cc(C(=O)CCl)c2c1` the Potency was inconclusive: 10 µM [inhibitor, partial curve].
For `O=C(c1ccncc1)N(c1ccc2oc3c(c2c1)CCCC3)S(=O)(=O)c1cccc([N+](=O)[O-])c1`, the Potency was inconclusive: 35.5 µM [inhibitor, single point].
With `COc1ccc(C(=O)/C=C(\C)Nc2ccc3c(c2)OCO3)cc1` the Potency was active: 12.6 µM.
In the case of `COC(=O)c1c(NC(=O)Cc2cccs2)sc2c1CCC(C)C2` (stereo not drawn), the Potency is reported as inconclusive: 39.8 µM [inhibitor, partial curve].
`O=C(Nc1ccc(OC(F)F)c(Cl)c1)Nc1ccc2c(c1)OCO2` was tested, and the Potency was inconclusive: 6.31 µM [inhibitor, partial curve].
In the case of `CCCCN1C(=O)/C(=C/C=C2/CC(C)(C)CN2C)SC1=S`, the Potency is reported as inconclusive: 12.6 µM [inhibitor, partial curve].
In the case of `S=c1[nH]nc(-c2cc(-c3ccccc3)n[nH]2)n1/N=C/c1c(Cl)cccc1Cl`, the Potency is reported as inconclusive: 15.8 µM [inhibitor, partial curve, poor fit].
In the case of `Cc1cccc(CSc2nc3c(c(=O)[nH]2)C(c2cccc(O)c2)CC(=O)N3)c1` (stereo not drawn), the “activity, negative = inhibition” value is reported as inactive: 2.26%.
In the case of `COc1ccc(/C=N/NC(=O)c2ccccc2OCc2ccccc2)c(OC)c1`, the Potency is reported as inconclusive: 15.8 µM [inhibitor, partial curve].
In the case of `O=C1C2CC=CCC2C(=O)N1c1ccc(NCCc2cccc(F)c2)c([N+](=O)[O-])c1` (stereo not drawn), the Potency is reported as inconclusive: 7.08 µM [inhibitor, partial curve].
In the case of `Cc1c(C(=O)NCc2cccs2)oc2ccc(Br)cc12`, the Potency is reported as inconclusive: 39.8 µM [inhibitor, single point].
For `COc1ccc(CCNC(=O)C2CCCN(c3nc4c(C)cc(C)cc4s3)C2)cc1OC` (stereo not drawn), the Potency was inconclusive: 12.6 µM [inhibitor, single point].
`CCOC(=O)C(NC(=O)c1cccnc1)(Nc1cccc(C)n1)C(F)(F)F` (stereo not drawn) was tested, and the Potency was inconclusive: 25.1 µM [inhibitor, partial curve, poor fit].
In the case of `CC(C(=O)NCC1CCCCC1)N1CCN(S(=O)(=O)c2ccccc2F)CC1` (stereo not drawn), the “activity, negative = inhibition” value is reported as inactive: -0.16%.
For `CSc1ccc2c(c1)C(N1CCN(C)CC1)Cc1ccccc1S2` (stereo not drawn), the Potency was inconclusive: 28.2 µM [inhibitor, partial curve, poor fit] [middle of 4 runs].
`Cc1c(C(=O)OC2CCCC2)[nH]c2c1C(=O)CC(c1ccco1)C2` (stereo not drawn) was tested, and the Potency was inconclusive: 2.82 µM [inhibitor, partial curve].
In the case of `COc1ccc(NS(=O)(=O)c2ccc(Oc3cccc(C(=O)O)c3)cc2)cc1`, the “activity, negative = inhibition” value is reported as inactive: -12.2%.
`O=C(N/N=C(\CC(=O)c1cccs1)C(F)(F)F)c1cccnc1` was tested, and the Potency was inconclusive: 25.1 µM [inhibitor, single point].
In the case of `COc1ccc(-c2cc(C(F)(F)F)n3nc(C(=O)NCC45CC6CC(CC(C6)C4)C5)cc3n2)cc1`, the Potency is reported as inconclusive: 0.708 µM [inhibitor, full curve].
`CCN(C(=O)COC(=O)CNC(=O)c1ccc(C)c(C)c1)C1CCS(=O)(=O)C1` (stereo not drawn) was tested, and the “activity, negative = inhibition” value was inactive: -4.71%.
With `Cc1ccc(C(=O)CSC2=C(C#N)C(c3ccco3)C3=C(CCCC3=O)N2)cc1` (stereo not drawn) the Potency was active: 15.8 µM.
